Test results: patent US20230094463A1, “ANTIBODIES THAT DISRUPT THE INTERACTION OF GAL3 AND INSULIN RECEPTOR OR INTEGRINS AND METHODS OF USE THEREOF” (TrueBinding, Inc., priority 2019, published 2023)
Where a chain is given by its changes, count along the chain named.

B1: 4G2.2G6: anti-Gal3 monoclonal antibody (antibody, V domains shown)
VH: QIQLVQSGPDLKKPGETVKISCKASGYTFTTYVMSWVKQAPGKDLKWMGWINTHSGVPTYADDFKGRFDFSLETSANTAFLQINNLKNEDTATYFCTRDGNDGDAMDNWGQGTSVTVSS
VL: DVVMTQTPLTLSVTIGQPASISCKSSQSLLYTDGKTYLSWFLQRPGQSPKRLIYLVSKLDSGVPDRFSGSGSGTDFTLKISRVEAEDLGVYYCLQSTHFPLTFGAGTKLEVK
B2: 3B11.2G2: anti-Gal3 monoclonal antibody (antibody, V domains shown)
VH: QIQLVQSGPELKKPGETVKISCKTSGYKFKTYVMSWVKQAPGKALKWMGWINTYSGVPTYADDFKGRFAFSLETSASTAYLEIINLKNEDTATYFCARDGNYGDPMDYWGQGTSVTVSS
VL: B1 VL with T14A, D33N, S39N, F41L, V111L
B3: 14H10.2C9: anti-Gal3 monoclonal antibody (antibody, V domains shown)
VH: QIQLVQSGPELKKPGETVKISCKASGYTFTTYGMGWVKQAPGKDLKWMGWINTYSGVPTYADDFKGRFAFSLETSASTAYLQISNLKNEDTATYFCSTPYEYDGAYWGQGTLVTVSA
VL: B1 VL with L30F, Y31D, T32S, S39N, F41L, S68T, L94W, S96G, V111M
B4: 13H12.2F8: anti-Gal3 monoclonal antibody (antibody, V domains shown)
VH: B3 VH with G35S, D44G, S84N, S97A, T98V
VL: B1 VL with L30F, Y31H, T32S, S39N, F41L, S68T, L94W, S96G, V111M

Assays:
[1] = biological target: T1, Gal3 peptides (SEQ ID NOs: 3-26) (Homo sapiens, UniProt P17931); test: Gal3 peptide library binding ELISA (epitope mapping); conditions: for binding to Gal3 Peptide 4: Peptide 4 (SEQ ID NO: 6), amino acids 31-50 of Gal3; for binding to Gal3 Peptide 6: Peptide 6 (SEQ ID NO: 8); for binding to Gal3 Peptide 7: Peptide 7 (SEQ ID NO: 9), amino acids 61-80 of Gal3
T1 construct: a library of 24 amino acid peptides representing portions of Gal3; purchased LifeTein custom order
Description: To identify the epitopes to which Gal3 antibodies with and without Gal3-INSR blocking activity bound, a library of 24 amino acid peptides representing portions of Gal3, depicted in FIG. 27, was produced and the ability of each peptide to bind Gal3 antibodies was evaluated by ELISA. At least 2 μg/ml of hGal3 peptide in 50 μl of PBS or 0.1 μg/ml of full-length human Gal3 protein (GenScript) and human Galectin-3 protein (Acro Biosystems, GA3-H5129) were diluted in PBS (Corning, 21-030-CM) to concentrations of at least 2 μg/ml or 0.1 μg/ml, respectively, and added to the wells of a 96-well ELISA plate (Thermo Fisher, 44-2404-21). After incubating the plate at 4° C. overnight, the plate was washed three times with PBST (PBS with 0.05% Tween 20 [VWR, 0777]). The plate was then blocked for an hour with 2% BSA (EMD Millipore, 126609) in PBST at room temperature with gentle rocking. Thereafter, the 2% BSA in PBST was discarded and human Galectin-3 hybridoma supernatants or antibodies were diluted in 2% BSA in PBST to concentrations of at least 0.1 μg/ml and added to the wells. The plate was incubated for an hour at room temperature with gentle rocking and then washed three times with PBST. Afterwards, Goat Anti-Mouse IgG-HRP (Jackson ImmunoResearch, 115-036-1461) or Goat Anti-Rat IgG HRP (Abcam, ab205720) diluted in 2% BSA in PBST (1:4000) were added to the wells. The plate was incubated for 30 minutes to 1 hour at room temperature with gentle rocking and then washed three times with PBST. TMB substrate (Thermo Scientific, 34029) was then added to each well. The reaction was stopped with 1M HCl (JT Baker, 5620-02) and read using a plate reader (Molecular Devices) at absorbance of 450 nm.
Human Gal3 peptides (LifeTein, custom order) and human Gal3 proteins (R&D Systems, 8259-GA; TrueBinding, QCB200349) were diluted in PBS (Corning, 21-030-CM) to concentrations of at least 100 μg/mL (peptides) or 1 μg/mL (proteins), and added to the wells of several 96-well ELISA plates (Thermo Fisher, 44-2404-21). After incubating the plates at 4° C. overnight, the plates were washed three times with PBST (PBS with 0.05% Tween 20 [VWR, 0777]). The plates were then blocked for an hour with 2% BSA (EMD Millipore, 126609) in PBST at room temperature with gentle rocking. Thereafter, the 2% BSA in PBST was discarded and Gal3-binding antibodies (reformatted hIgG4 [S228P]) were diluted in 2% BSA in PBST to concentrations of 5 μg/mL and added to the wells. The plates were incubated for an hour at room temperature with gentle rocking and then washed three times with PBST. Afterwards, Peroxidase AffiniPure F(ab′)2 Fragment Goat Anti-Human IgG (H+L) polyclonal antibody (Jackson ImmunoResearch, 109-036-003), was diluted in 2% BSA in PBST (1:4000) and added to the wells. The plates were incubated for 1 hour at room temperature with gentle rocking and then washed three times with PBST. TMB substrate (Thermo Scientific, 34029) was then added to each well. The reaction was stopped with 1M HCl (JT Baker, 5620-02) and read using a plate reader (Molecular Devices) at absorbance of 450 nm.

human Gal3 = biological target: T2, human Gal3 (Homo sapiens, UniProt P17931); test: Antibody binning assays (competition for binding to Gal3); conditions: binning per Examples 3 and 18
T2 construct: His; purchased AcroBio GA3-H5129
Description: To determine whether Gal3-binding antibodies with Gal3-INSR blocking activity bind to the same or overlapping regions of the Gal3 molecule, antibody binning assays were performed to assess the ability of antibodies to simultaneously bind Gal3. Amine-reactive probes were loaded onto a Gator biosensor (Probe Life, Palo Alto, Calif.), equilibrated in dH20 for 60 seconds, dipped into 100 μl EDC 0.2M/NHS 0.05M activation buffer for 30 seconds, then dipped into a solution of […] human Gal3-His in 10 mM NaOAc buffer, pH 5 until binding was saturated, and quenched in 1 M ethanolamine pH 8.5 for 300 seconds. Following Gal3-His loading, tips were dipped in 20 μg/mL saturating antibody, then successively dipped into 5 μg/mL competing antibody.
The epitope binning assay was done in a sandwich format on the high-throughput SPR-based Carterra LSA unit (CarterraBio, Salt Lake City, Utah). First, the purified antibodies were diluted to 10 μg/ml concentration in 10 mM NaOAc (pH 5.0) and then were covalently coupled via amine group to HC200M chip activated by EDC and S-NHS to immobilize antibodies to different positions of a 384-spot array. One hundred thirty-eight binning cycles were run on the array of immobilized antibodies. In each cycle, first, human Gal3 (AcroBio GA3-H5129) was injected over the entire array to bind to different antibodies (primary antibody), followed by one antibody (secondary antibody) selected among the panel of 150 anti-GAL3 antibodies tested. At the end of each cycle, the array was regenerated by 10 mM Glycine (pH 2.0) to remove bound antigen and secondary antibody from the array. The data analysis was done using the Epitope software by CarterraBio.

T2 sequence (P17931 whole entry): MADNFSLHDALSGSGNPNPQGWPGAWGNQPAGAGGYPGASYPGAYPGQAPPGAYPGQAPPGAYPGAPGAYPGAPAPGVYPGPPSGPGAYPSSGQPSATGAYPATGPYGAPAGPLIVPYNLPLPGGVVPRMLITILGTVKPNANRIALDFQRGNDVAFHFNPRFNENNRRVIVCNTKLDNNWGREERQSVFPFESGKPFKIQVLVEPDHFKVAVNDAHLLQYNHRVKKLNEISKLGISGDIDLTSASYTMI

Row | Molecule | binding to Gal3 Peptide 4 [1] | epitope bin (competitive binding to Gal3) (human Gal3) | binding to Gal3 Peptide 6 ([1]; amino acids 51-70 of Gal3) | binding to Gal3 Peptide 6 ([1]; amino acids 51-70 of Gal3, listed as 3B11.2D2) | binding to Gal3 Peptide 7 [1]
1 | B1 | bind and bound | bin 6 | – | – | –
2 | B2 | bind and bound | bin 7 | bound | bind and bound | bound
3 | B3 | – | bin 8 | bind and bound | – | bind and bound
4 | B4 | – | – | bind and bound | – | bind and bound
